The series is described as follows: Western blot of endogenous PDK1 in ST2 cells. Particulars: glycan lost; control: rhWnt3a alone.

B1: PDK1 (pyruvate dehydrogenase kinase 1): OGT siRNA (protein)
parent chain: MRLARLLRGGTSVRPLCAVPCASRSLASASASGSGPASELGVPGQVDFYARFSPSPLSMKQFLDFGSVNACEKTSFMFLRQELPVRLANIMKEISLLPDNLLRTPSVQLVQSWYIQSLQELLDFKDKSAEDAKTIYEFTDTVIRIRNRHNDVIPTMAQGVTEYKESFGVDPVTSQNVQYFLDRFYMSRISIRMLLNQHSLLFGGKGSPSHRKHIGSINPNCDVVEVIKDGYENARRLCDLYYVNSPELELEELNAKSPGQTIQVVYVPSHLYHMVFELFKNAMRATMEHHADKGVYPPIQVHVTLGEEDLTVKMSDRGGGVPLRKIDRLFNYMYSTAPRPRVETSRAVPLAGFGYGLPISRLYAQYFQGDLKLYSLEGYGTDAVIYIKALSTESVERLPVYNKAAWKHYKANHEADDWCVPSREPKDMTTFRSS
B1: the expression_or_secretion entry was “decreases”.

(Values after PMC11467389.)
